Experimental data from the supplement of paper PMC10126150.
Values marked as one replicate rest on one cluster of the flow cell; about a third of the high ones do not repeat.

Each sequence was assayed on ATP (assay: switch fluorescence ratio, 500 uM ATP over buffer (Cy3 cluster intensity, sum of 5 cycles each) (fold (ratio)); higher = stronger signal-on switching upon ATP binding; sequences stand for … in TCGTCGGCAGCGTCAGATGTGTATAAGAGACAGTTTTTTTTTTTTTTTTTTTTTTTTT…TC). Conditions: aptamer strand: ATP DNA aptamer (quencher-CACCTGGGGGAGTATTGCGGAGGAAGG + anchor), 100 nM annealed; ATP concentration: 500 uM; one replicate.
Method in brief: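 Between each of five buffer/ATP cycles, the flow-cell was stripped with NaOH and re-annealed. Each cycle imaged Cy3-labelled switching-strand clusters, annealed to 100 nM quencher-labelled ATP aptamer on a modified Illumina MiSeq flow-cell, first in selection buffer and then after 15 min with 500 uM ATP at 22 °C. The fluorescence ratio is summed target-cycle over summed buffer-cycle Cy3 intensity per cluster, averaged per switch-domain sequence, with clusters outside 100-1000 RFU excluded.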
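Further: ATP exposure 15 min at 22 °C before imaging.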

Sequence | switch fluorescence ratio
TATCATTCCT | 0.99
TATCCAAGGT | 1.04
TATCCCAGCT | 1.02
TATCCGATGG | 1.02
TATCCGTTT | 1.04
TATCCTAAC | 1.1
TATCGCTGTT | 0.998
TATCGGCGGA | 1.01
TATCGGGCAT | 1.36
TATCGGTCAC | 1
TATCGTGAAG | 1
TATCGTTGCT | 0.944
TATCGTTTAG | 1.02
TATCTAAACG | 0.994
TATCTAGATG | 1.02
TATCTAGTGC | 1.01
TATCTATCGT | 1.03
TATCTCGAAA | 1
TATCTCGTGC | 1.03
TATCTCTGAG | 1.12
TATCTGGGG | 0.985
TATCTGTACT | 1.06
TATCTGTG | 0.992
TATCTTAAAC | 0.963
TATCTTAACC | 1.03
TATCTTATGA | 0.997

Sequence | switch fluorescence ratio
TATCTTTTGG | 1.02
TATGAAGGAA | 1.01
TATGAAGGCG | 1.02
TATGAATACA | 0.991
TATGACCCAG | 1
TATGACCGCA | 1.21
TATGAGATGA | 0.921
TATGAGATTG | 0.992
TATGAGGGAC | 0.963
TATGAGTGC | 1.03
TATGATAGTC | 0.991
TATGATGCAA | 1.01
TATGCAAAAG | 1.02
TATGCAGGGG | 0.982
TATGCATAAG | 0.968
TATGCCCGCG | 1.03
TATGCCGGTA | 1.02
TATGCGAGGC | 1.07
TATGCGCTCG | 0.968
TATGCTATCT | 0.994
TATGCTGACG | 1.06
TATGCTGTGG | 0.988
TATGCTTAGA | 0.991
TATGCTTGTT | 1.03
TATGGAAATT | 1.02
TATGGAACAG | 1.01

Sequence | switch fluorescence ratio
TATGGAGTCA | 0.995
TATGGCGTGC | 0.973
TATGGGCGAC | 0.935
TATGGGTCGC | 0.973
TATGGTAAGG | 0.944
TATGGTCACT | 0.99
TATGGTGAGA | 1.03
TATGGTTCCA | 1.02
TATGGTTCGG | 0.999
TATGGTTGAA | 0.933
TATGTAAAGG | 0.998
TATGTAGAGG | 0.971
TATGTAGTTT | 1.03
TATGTCACCG | 1.02
TATGTCAGCG | 1.04
TATGTCAGG | 0.987
TATGTCCCGC | 1.02
TATGTGCGTG | 0.979
TATGTGTGAG | 0.989
TATGTGTTGT | 0.985
TATGTTCGTA | 0.978
TATGTTTAAG | 0.979
TATTAAAATC | 1.01
TATTAATATA | 0.992
TATTACATT | 0.985
TATTACTTGG | 1

Sequence | switch fluorescence ratio
TATTAGCGCC | 0.962
TATTATAT | 1.02
TATTATCATA | 1.05
TATTATCCGA | 0.959
TATTATGTGT | 1.07
TATTATTACA | 1.07
TATTCACTGT | 1.03
TATTCATGAG | 0.974
TATTCCAGCG | 1.03
TATTCGAACC | 1.06
TATTCGCCCT | 0.997
TATTCGGCTT | 0.976
TATTCGTAA | 1.04
TATTCGTGTT | 2.42
TATTCTCACA | 1.01
TATTCTCAGG | 1.07
TATTCTGCGT | 0.984
TATTGAATA | 0.935
TATTGACGAT | 1.08
TATTGAGATT | 0.972
TATTGCCGTT | 0.946
TATTGCGGTA | 0.965
TATTGGAAGA | 1
TATTGGACGG | 1.1
TATTGGT | 0.992
TATTGGTGGA | 0.984

Sequence | switch fluorescence ratio
TATTGGTTG | 1.03
TATTGTAAGG | 0.993
TATTGTGATC | 1.02
TATTGTGGG | 0.987
TATTGTTTAC | 1.12
TATTTCCCG | 1.01
TATTTCGCCT | 1.05
TATTTCGTGC | 1.05
TATTTGCCGA | 0.968
TATTTGGAGC | 1.02
TATTTGGGCC | 0.98
TATTTGTCTG | 1.02
TATTTGTTAA | 0.984
TATTTGTTGT | 0.967
TATTTTCCGG | 0.961
TCAAAAAAAG | 0.987
TCAAACACTC | 1.05
TCAAACATA | 1.01
TCAAACGCCG | 0.944
TCAAACTCA | 1.02
TCAAACTGAA | 0.983
TCAAACTTGC | 0.98
TCAAATCACG | 1.05
TCAACCTTCA | 2.12
TCAACGCAGT | 1.05
TCAAGCACGG | 1.19

Sequence | switch fluorescence ratio
TCAAGGATTC | 0.993
TCAAGTCGGC | 0.981
TCAAGTTAAT | 1.08
TCAATAAGAC | 1.04
TCAATACGAA | 1.26
TCAATCCAC | 1.07
TCAATCCTGT | 0.993
TCAATGAGG | 0.989
TCAATGGGAC | 0.989
TCAATGTCAT | 0.993
TCAATTCCG | 0.964
TCAATTTTC | 1.02
TCACAATCGA | 1.03
TCACAGAATA | 1.01
TCACAGGAAA | 1.26
TCACAGTCGC | 1.03
TCACATATAG | 1.06
TCACATCTGT | 1.01
TCACATTGCG | 1.03
TCACCGGCCA | 1.09
TCACGAAGAA | 0.974
TCACGGGCTG | 1
TCACGGGGCG | 1.01
TCACGGTATT | 1.14
TCACGTCTAA | 0.999
TCACTCCATC | 1.06

Sequence | switch fluorescence ratio
TCACTCGCCA | 1.17
TCACTTCGCG | 1.1
TCAGAAATCC | 0.992
TCAGAACACG | 1.05
TCAGAACTGT | 0.977
TCAGAAGCCT | 1.21
TCAGAATACG | 1.04
TCAGAATGGA | 1.02
TCAGAATTT | 1.02
TCAGACGGTT | 1.04
TCAGAGCATA | 1.92
TCAGATGCAC | 1.18
TCAGATGTG | 0.974
TCAGATTAAC | 1
TCAGCATATT | 1.01
TCAGCGTACT | 1.25
TCAGGAGTTA | 0.982
TCAGGATACG | 1.03
TCAGGATCCC | 0.99
TCAGGATTGC | 0.999
TCAGGCAGAT | 0.956
TCAGGCTTTT | 0.989
TCAGGGATGT | 0.997
TCAGGGATTT | 0.955
TCAGGTCGCT | 0.99
TCAGGTGAAG | 1.14

Sequence | switch fluorescence ratio
TCAGGTGTGC | 1.29
TCAGTAAGG | 0.991
TCAGTAATG | 0.994
TCAGTAGTAG | 1.04
TCAGTATTGT | 0.963
TCAGTCATGG | 1.08
TCAGTCCATT | 0.96
TCAGTGTTGT | 1.01
TCAGTTCACG | 1.01
TCAGTTCGTG | 1
TCAGTTGTAG | 1.01
TCATAAAATA | 0.943
TCATAAGGTA | 0.987
TCATAAGTTC | 1.01
TCATACTAAC | 1.14
TCATACTCTG | 1.02
TCATACTGAG | 1.04
TCATAGATGC | 1.02
TCATAGTTAC | 1.06
